These are yes or no findings as the source states them, for the method shown. In cells and extracts the contact can be indirect. Some results given as binding are weak or reduced against the parent protein; the word gives no strength. For some of these results: Where a sequence is shown, tags or fusion partners need not be part of it.
Experiments:
[1] = biological target: FLAG-tagged BPV1 E6 (Bos taurus papillomavirus 1) (UniProt P06931); assay: co-IP; HA-E6AP_Ub- or HA-E6AP_Ub- LDDLL co-transfected with the E6 protein and HA-GFP in 293T cells; lysed 18 hours later in 0.5X IGEPAL lysis buffer
[2] = biological target: T1, FLAG-tagged HPV11 E6 (Human papillomavirus type 11) (UniProt P04019); assay: co-IP; FLAG-E6 co-expressed in 293T cells with an excess of both HA-E6AP_Ub- and HA-MAML1 (and HA-GFP); lysed 18 hrs later in 0.5X IGEPAL lysis buffer; anti-FLAG M2 beads 1 hr; blots with anti-HA and anti-FLAG
T1 sequence: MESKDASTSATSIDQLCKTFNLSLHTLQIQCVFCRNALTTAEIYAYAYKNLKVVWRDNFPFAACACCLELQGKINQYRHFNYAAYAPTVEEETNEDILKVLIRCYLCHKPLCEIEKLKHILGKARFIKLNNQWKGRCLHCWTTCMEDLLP

[3] = biological target: FLAG-tagged HPV18 E6 (Human papillomavirus type 18) (UniProt P06463); assay: as above
[4] = biological target: FLAG-tagged PsPV1 E6 (Phocoena spinipinnis papillomavirus 1) (UniProt Q8UZ19); assay: as above
[5] = biological target: FLAG-tagged UmPV1 E6 (Ursus maritimus papillomavirus 1) (UniProt B2KKW7); assay: as above
[6] = biological target: FLAG-tagged BPV1 E6 (Bos taurus papillomavirus 1) (UniProt P06931); assay: as above
[7] = biological target: T2, FLAG-tagged HPV1 E6 (Human papillomavirus type 1) (UniProt P06929); assay: as above
T2 sequence: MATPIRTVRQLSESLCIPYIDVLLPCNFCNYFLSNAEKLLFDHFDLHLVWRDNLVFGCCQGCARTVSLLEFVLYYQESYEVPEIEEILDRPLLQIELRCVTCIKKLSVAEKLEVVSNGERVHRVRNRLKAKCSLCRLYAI

[8] = biological target: FLAG-tagged HPV16 E6 (Human papillomavirus type 16) (UniProt P03126); assay: as above
[9] = biological target: FLAG-tagged HPV8 E6 (Human papillomavirus type 8) (UniProt P06428); assay: as above
[10] = biological target: FLAG-tagged MnPV1 E6 (Mastomys natalensis papillomavirus 1) (UniProt P30735); assay: as above
[11] = biological target: FLAG-tagged BPV1 E6 (Bos taurus papillomavirus 1) (UniProt P06931); assay: co-IP; 293T cells co-transfected with myc-MAML3, HA-MAML1, HA-MAML2, HA-E6AP_Ub-, HA-GFP and FLAG-E6; FLAG antibody beads
[12] = biological target: FLAG-tagged BpPV1 E6 (Bettongia penicillata papillomavirus 1) (UniProt D6N1B8); assay: as above
[13] = biological target: FLAG-tagged RaPV1 E6 (Rousettus aegyptiacus papillomavirus 1) (UniProt Q0QII1); assay: as above

HA-tagged E6AP containing a C843A mutation that eliminates ubiquitin ligase activity (E6AP_Ub-) (from UniProt Q05086-1 1-875) (enzyme)
binding [1]: no binding | binding [2]: binds | binding [3]: binds | binding [4]: binds | binding [5]: binds

HA-tagged MAML1 (from UniProt Q92585 1-1016)
binding [6]: binds | binding [7]: binds weakly | binding [8]: binds weakly | binding [9]: binds weakly | binding [10]: binds weakly

myc-MAML3 (from UniProt Q96JK9 1-1138)
binding [11]: binds | binding [12]: no binding | binding [13]: no binding

Source: article PMC5760104
